Measured values reported in PubChem BioAssay AID463173 (ICCB-Longwood Screening Facility, Harvard Medical School, 2010).
In all, about 52,000 compounds went through this assay and about 4,300 (8.3%) were called active. Rule as the data show it: active = survival mostly below about 52% (no sharp cut-off); inactive = mostly above about 56%. The list shows a part of the results.

The compounds below were run on DeltatarO mutant (assay: S. aureus survival, RN4220 and DeltatarO strains – OD600, teichoic acid synthesis inhibitors, primary screen (AID 463173)). Conditions: S. aureus RN4220 wild type/DeltatarO growth, OD600, 18 h, stronger effect = lower value, screened at 18.75 µg/mL (by protocol).

Row | Compound | survival
1 | COc1ccc(OC)c(CCNC(=O)c2nn(C)c3c2CSc2ccccc2-3)c1 | inactive: 82%
2 | CNC(=O)c1ccc2nc(Cc3ccccc3)oc2c1 | active: 37%
3 | CCC1CCc2c(sc(NC(=O)C3c4ccccc4Oc4ccccc43)c2C(=O)OC)C1 (stereo unspecified) | inactive: 72%
4 | CC(C)c1ccc2oc(-c3ccc(Cl)c(NC(=O)Cc4ccccc4)c3)nc2c1 | inactive: 116%
5 | CCOC(=O)N1CCC(NC(=O)c2ccc3c(c2)N(Cc2ccc(Cl)cc2)C(=O)c2ccccc2S3(=O)=O)CC1 | inactive: 72%
6 | Cc1ccc(C(=O)c2oc3ccccc3c2NC(=O)C(C)Oc2ccccc2Cl)cc1 (stereo unspecified) | active: 40%
7 | COc1ccccc1C(=O)N=C1NC(=O)CC2C(=O)NCCN12 (stereo unspecified) | inactive: 89%
8 | CC(C)c1ccc(C2=NC(c3ccncc3)=Nc3ccc(F)cc3N2)cc1 | inactive: 59%
9 | O=C(Nc1nc2c(s1)CCCC2)c1ccccc1F | inactive: 76%
10 | CCOc1ccc(OCC)c(Nc2nc3ccc(C(=O)c4ccccc4)cc3n3cnnc23)c1 | inactive: 77%
11 | COc1ccc2c(c1)CC(C(=O)Nc1ccc(OC)cc1OC)CO2 (stereo unspecified) | inactive: 89%
12 | O=C(Cn1cc(SCc2ccccc2F)c2ccccc21)N1CCCC1 | inactive: 57%
13 | Cc1cc(Br)ccc1NC(=O)CCNS(=O)(=O)c1cccc2nonc12 | active: 43%
14 | CC1CCN(C(=O)c2ccc3c(c2)nnn3C)CC1 | inactive: 83%
15 | COc1ccc(NC(=O)c2c(NCc3cccs3)sc3c2CCCCC3)c(OC)c1 | inactive: 69%
16 | O=C(Nc1ccc(Br)cc1F)c1cc2nc(-c3ccco3)cc(C(F)(F)Cl)n2n1 | inactive: 82%
17 | O=C(c1cnn2c(C(F)F)cc(-c3ccccc3)nc12)N1CCCC1 | inactive: 84%
18 | O=C(NC1CCCC1)c1ccc(CSc2nc3cccnc3n2Cc2ccccc2)cc1 | inactive: 95%
19 | COc1ccc(CCNC(=O)CSCc2nc(-c3cccc(C)c3)oc2C)cc1OC | inactive: 66%
20 | O=C(NCc1ccccc1)c1ccc2c(c1)N(Cc1ccc(F)cc1)CCS2 | inactive: 73%
21 | COC(=O)C1CC(=O)N(c2ccccc2)C1 (stereo unspecified) | inactive: 72%
22 | CCc1ccc(NC(=O)C2CCN(S(=O)(=O)c3c(C)noc3C)CC2)cc1 | inactive: 104%
23 | Cn1c(=O)c2cc(C(=O)Nc3cccc(C#N)c3)sc2c2ccccc21 | inactive: 106%
24 | COc1ccc(C2=NN(CC(=O)NCCc3ccccc3)C(=O)CC2)cc1 | inactive: 125%
25 | CCCC(=O)Nc1sc2c(c1C(N)=O)CCC2 | inactive: 65%
26 | COc1ccc(CNC(=O)c2cc3oc4ccccc4c3n2C)cc1OC | active: 43%
